In PubChem BioAssay AID588342 (National Center for Advancing Translational Sciences (NCATS), 2011):
Where “and” joins values, the source holds several entries; their conditions need not be identical. Equal entries are not always repeated. The campaign covered roughly 360,000 compounds. About 25,000 (6.9%) were called active. Inconclusive means that the source gave no clear call. Such entries were picked first, then a sample of the others. The call rests on the fitted dose curve; in most records, active means well fitted inhibition curve with a large enough effect; inconclusive means small, poorly fitted or top-dose-only effect; inactive means flat fitted curve, though single readings scatter. Potencies beside an inconclusive call are fits to weak or partial responses and may not hold up.

molecular target: Luciferin 4-monooxygenase (Photinus pyralis) (UniProt P08659); assay: qHTS profiling assay for firefly luciferase inhibitor/activator using purifed enzyme and Km concentrations of substrates (counterscreen for miR-21 project); settings: purified FLuc, luminescence inhibition; series mostly up to 57.5 µM; further: nearly all actives have a fitted effect of over 55% in size
UniProt P08659, sequence (P08659 whole entry, looked up): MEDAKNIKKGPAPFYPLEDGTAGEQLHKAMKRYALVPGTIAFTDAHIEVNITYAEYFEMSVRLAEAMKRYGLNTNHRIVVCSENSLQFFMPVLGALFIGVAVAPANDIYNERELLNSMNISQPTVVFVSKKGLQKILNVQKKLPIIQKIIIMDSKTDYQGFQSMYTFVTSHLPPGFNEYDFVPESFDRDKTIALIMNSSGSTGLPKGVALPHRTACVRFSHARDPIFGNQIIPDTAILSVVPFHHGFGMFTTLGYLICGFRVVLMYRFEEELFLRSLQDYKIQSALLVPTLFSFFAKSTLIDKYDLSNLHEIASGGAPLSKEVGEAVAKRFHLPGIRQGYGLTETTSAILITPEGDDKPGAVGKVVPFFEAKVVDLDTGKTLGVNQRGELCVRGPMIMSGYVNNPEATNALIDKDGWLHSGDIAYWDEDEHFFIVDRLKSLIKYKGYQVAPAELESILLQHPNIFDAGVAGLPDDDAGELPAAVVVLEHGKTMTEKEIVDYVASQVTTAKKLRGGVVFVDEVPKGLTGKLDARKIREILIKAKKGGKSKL
Outline: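 Purified P. pyralis luciferase (10nM final) with 10uM D-luciferin and 10uM ATP (Km levels) in 50mM Tris acetate pH 7.5, 10mM Mg acetate, 0.01% Tween-20, 0.05% BSA; qHTS 6-point titration, ~60 µM downward; luminescence read.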
Potency means the concentration at half of the fitted maximal effect; tags describe the fitted curve by direction and shape.

| Compound | Potency |
| --- | --- |
| O=c1c2ccccc2nc2sc(Nc3cccc(Cl)c3)nn12 | inconclusive: 26.9 µM [inhibitor, partial curve, poor fit] and inconclusive: 4.26 µM [inhibitor, partial curve, poor fit] |
| CCC(=O)N1CCC(NC(=O)Nc2ccc(OC(F)(F)F)cc2)CC1 | inactive |
| Cc1ccc(OCC(=O)Nc2ccccc2F)cc1C | active: 9.53 µM |
| O=C(c1ccc(-c2cc(O)c3ncccc3c2)cc1)N1CCNCC1 | inconclusive: 8.49 µM [inhibitor, partial curve, poor fit] |
| O=Cc1cccc(OC(=O)c2ccc(Cl)cc2Cl)c1 | active: 16.9 µM |
| COc1ccc(-n2ccc(-c3nn(-c4cccc(C(F)(F)F)c4)ccc3=O)n2)cc1 | inactive |
| CCOc1ccc(/C=N/Nc2ccccc2)cc1 | inconclusive: 21.3 µM [inhibitor, single point] |
| COc1ccc(C(=O)/C=C2\NCCc3cc(OC)c(OC)cc32)cc1OC | inconclusive: 19 µM [inhibitor, partial curve] |
| Cc1sc2ncnc(SCC(=O)N3CCCC3=O)c2c1C | inconclusive: 21.3 µM [inhibitor, partial curve, poor fit] |
| Cc1ccc(S(=O)(=O)NCc2cn3c(C)csc3n2)cc1 | inactive |
| O=C(NCCc1ccc(Cl)cc1)c1n[nH]c2ccccc12 | inconclusive: 13.5 µM [inhibitor, partial curve] |
| Cc1cccc(NC(=O)c2ccc(NCC3CCCO3)c([N+](=O)[O-])c2)c1 (stereo not given) | inconclusive: 9.53 µM [inhibitor, partial curve] |
| CCOc1ccc(C(=O)N(CC(=O)Nc2cccc(C)c2C)CC2CCCO2)cc1OC (stereo not given) | inactive |
| COc1ccccc1C(=O)NC(=O)CSc1nncn1C(C)C | inactive |
| Cc1cccc(OCc2nc(C#N)c(NCc3ccc4c(c3)OCO4)o2)c1 | inconclusive: 37.9 µM [inhibitor, partial curve, poor fit] |
| Cc1sc2nc(N)sc2c1C | inconclusive: 37.9 µM [inhibitor, partial curve, poor fit] |
| COC(=O)c1ccccc1SC1CC(=O)N(c2ccccc2)C1=O (stereo not given) | inconclusive: 26.9 µM [inhibitor, partial curve, poor fit] |
| COc1ccc(C(=O)c2cnc3ccc(C)cc3c2S(=O)(=O)c2ccccc2)cc1 | inconclusive: 8.49 µM [inhibitor, partial curve] |
| O=C(NCCc1c[nH]c2ccccc12)c1ccc2[nH]c(=O)c(=O)[nH]c2c1 | inactive |
| CCc1ccc2c(c1)C(NC(C)=O)C(=O)N2CCN1CCOCC1 (stereo not given) | inconclusive: 37.9 µM [inhibitor, single point] |
| O=C(/C=C/c1ccc(Cl)cc1)NC(=S)Nc1ccc(C(=O)O)cc1 | inactive |
| O=C(Nc1ccccc1Cl)c1ccc2c(=O)n3c(nc2c1)CCC3 | active: 10.7 µM |
| CCOC(=O)C[n+]1c(C)sc2ccc(OC)cc21 | inactive |
| Cc1ccc(CN2C(=O)C(O)(CC(=O)c3ccc(C)cc3)c3ccccc32)cc1 (stereo not given) | inconclusive: 12 µM [inhibitor, partial curve] |
| O=C(/C=C/c1ccc2c(c1)OCCCO2)c1ccccc1O | active: 0.269 µM |

| Compound | Potency |
| --- | --- |
| CCCCCC#CCC#CCC#CCC#CCCCC(=O)O | inconclusive: 30.1 µM [inhibitor, single point] |
| Cc1c(Cc2ccccc2)c(=O)oc2c(C)c(OCc3nn[nH]n3)ccc12 | inconclusive: 37.9 µM [inhibitor, single point] |
| CC(NC(=O)COc1ccccc1)C(=O)OCC(=O)c1cc2ccccc2o1 (stereo not given) | inconclusive: 26.9 µM [inhibitor, single point] |
| Cc1nc(Nc2nc3ccccc3o2)nc2c1CCC2 | active: 1.69 µM |
| Cn1c(SCC(=O)Nc2nccs2)nnc1C12CC3CC(CC(C3)C1)C2 | inconclusive: 30.1 µM [inhibitor, partial curve, poor fit] |
| CN1CCN(c2oc(COc3ccc(-c4ccccc4)cc3)nc2C#N)CC1 | inconclusive: 37.9 µM [inhibitor, partial curve, poor fit] |
| O=C1Cc2ccccc2C(=O)N1OCc1ccc(Cl)cc1 | inconclusive: 26.9 µM [inhibitor, single point] |
| NS(=O)(=O)c1ccc(NC(=S)NC2CCCCC2)cc1 | inconclusive: 37.9 µM [inhibitor, single point] |
| O=C(O/N=C\c1ccc(N2CCCCC2)c([N+](=O)[O-])c1)c1c(F)cccc1F | inconclusive: 7.57 µM [inhibitor, partial curve, poor fit] |
| COc1cc(CN(C(=O)COc2ccc(Cl)cc2)c2ccccn2)cc(OC)c1OC | inconclusive: 21.3 µM [inhibitor, partial curve] |
| Clc1ccc(-c2csc(-c3ccno3)n2)cc1 | inconclusive: 12 µM [inhibitor, partial curve] |
| CN1CCN(c2oc(-c3ccccc3Cl)nc2S(=O)(=O)c2ccccc2)CC1 | inactive |
| CCOC(=O)Cn1cc(C(=O)c2cccs2)c2ccccc21 | inconclusive: 37.9 µM [inhibitor, partial curve, poor fit] |
| Cn1ccnc1C(=O)c1ccc(Cl)c(S(=O)(=O)N2CCOCC2)c1 | inactive |
| CN(C(=O)c1ccco1)c1nc2c(s1)CCCC2 | active: 2.39 µM |
| Cc1ccccc1CCN(C(=O)CN1C(=O)c2ccccc2S1(=O)=O)C(C(=O)NCC1CCCO1)c1ccncc1 (stereo not given) | inactive |
| Cc1oc(-c2ccc(Cl)cc2)cc1C(=O)O | active: 10.7 µM |
| CC(C)(C)c1ccc(C(=O)NNc2ncnc3c2cnn3-c2ccc(Cl)cc2)cc1 | inconclusive: 26.9 µM [inhibitor, single point] |
| O=C(CSc1ccccc1)N1CCc2c([nH]c3ccccc23)C1c1ccc(Cl)cc1 (stereo not given) | inactive |
| COc1ccc(NC(=O)Cn2nc3c(cc2=O)CCCC3)cc1Cl | inactive |
| O=C(Nc1ccc(N2CCCC2)cc1)c1cccc(Cl)c1 | active: 0.675 µM |
| Nc1ccn(Cc2ccccc2F)n1 | inconclusive: 37.9 µM [inhibitor, partial curve, poor fit] |
| Cc1cc(NS(=O)(=O)c2ccc(NC(=O)Nc3ccc4c(c3)OCO4)cc2)no1 | inconclusive: 19 µM [inhibitor, partial curve] |
| CN(C(=O)COC(=O)c1cc2c(s1)CCCCC2)C1CCS(=O)(=O)C1 (stereo not given) | inconclusive: 37.9 µM [inhibitor, partial curve, poor fit] |
| Cc1ccc(-c2cnc3c(Cl)c(C)nn3c2)cc1 | active: 1.35 µM |

| Compound | Potency |
| --- | --- |
| COc1cccc(-n2c(SCC(=O)Nc3cccc(C)c3)nc3c([nH]c4ccccc43)c2=O)c1 | inactive |
| CCN(CC)CCN(Cc1cc2cc3c(cc2[nH]c1=O)OCCO3)C(=S)NCC(C)C | inconclusive: 19 µM [inhibitor, partial curve, poor fit] |
| CCn1c(NCc2ccccc2Cl)nc2ccccc21 | active: 19 µM |
| O=C1/C(=C/c2coc3ccc(O)cc3c2=O)SC(=S)N1c1ccccc1 | inactive |
| c1cnc2c(SCc3ccc(-c4nnco4)cc3)cccc2c1 | active: 23.9 µM |
| O=C(CSc1nc2c([nH]c3ccccc32)c(=O)n1-c1ccccc1)N1CCCc2ccccc21 | inactive |
| O=C(N/N=C/c1cccc([N+](=O)[O-])c1)c1ccc2c(c1)OCCO2 | active: 1.35 µM |
| O=C(CN1C(=O)S/C(=C\c2ccccc2Cl)C1=O)NC1C=CS(=O)(=O)C1 (stereo not given) | inactive |
| O=C(COc1ccc(Cl)cc1Br)NC(=O)NCc1ccccc1 | inactive |
| CNC(=O)C1CCC(Cn2c(=O)c3sccc3n(CC(=O)NCc3ccc(C)cc3)c2=O)CC1 (stereo not given) | inactive |
| C=C(C)C1CC=C(C)/C(=N/NC(=O)c2cccs2)C1 (stereo not given) | active: 4.78 µM |
| COc1ccc(C)cc1NC(=O)C1COc2ccccc2O1 (stereo not given) | inconclusive: 23.9 µM [inhibitor, single point] |
| COc1ccc(CCNC(=O)c2cc(-c3cc(C)cc(C)c3O)n[nH]2)cc1OC | inconclusive: 26.9 µM [inhibitor, partial curve, poor fit] |
| Cc1ccc2cc3cc(C(=O)N4CC(C)CC(C)C4)oc3nc2c1 (stereo not given) | inconclusive: 23.9 µM [inhibitor, single point] |
| Cc1c(CCC(=O)O)c(=O)oc2c(C)c(OCc3ccccc3Cl)ccc12 | inactive |
| Cc1c(C)c2ccc(OCC(=O)N3CCC(C(=O)O)CC3)c(C)c2oc1=O | active: 23.9 µM |
| O=C(Cc1csc(-c2ccccc2)n1)NCc1ccccc1F | inconclusive: 30.1 µM [inhibitor, single point] |
| CCOC(=O)c1[nH]c2c(c1Cc1ccccc1OC)C(=O)CC(c1ccc(OCC)cc1)C2 (stereo not given) | inactive |
| CCc1nnc(NC(=O)CSc2nc3c(cc2C#N)CCCC3)s1 | active: 0.849 µM |
| CCOc1ccc(NC(=O)c2ccc(NC(=O)CSc3nc4ccccc4c(=O)[nH]3)cc2)cc1 | inactive |
| CC(C)NC(=O)c1ccccc1NC(=O)c1nsc2ccccc12 | inconclusive: 37.9 µM [inhibitor, partial curve, poor fit] |
| CN(C)c1cnn(-c2ccccc2)c(=O)c1Cl | inconclusive: 37.9 µM [inhibitor, partial curve, poor fit] |
| Cc1nc(CC(=O)Nc2nc(C(C)(C)C)cs2)cs1 | inconclusive: 37.9 µM [inhibitor, partial curve, poor fit] |
| COc1ccc(CCNC(=O)C2CCN(S(C)(=O)=O)CC2)cc1 | inactive |
| COc1ccc(-n2cc(-c3ccc(OC)c(OC)c3)[nH]c2=S)cc1 | inconclusive: 9.53 µM [inhibitor, partial curve, poor fit] |
